The values below come from a collection of fitness landscapes (doi:10.1126/science.1257360).

The labels stand for the following.
B1: PhoQ; a variant is named by its letters at X, in order, P23837 (parent)
chain: MKKLLRLFFPLSLRVRFLLATAAVVLVLSLAYGMVALIGYSVSFDKTTFRLLRGESNLFYTLAKWENNKLHVELPENIDKQSPTMTLIYDENGQLLWAQRDVPWLMKMIQPDWLKSNGFHEIEADVNDTSLLLSGDHSIQQQLQEVREDDDDAEMTHSVAVNVYPATSRMPKLTIVVVDTIPVELKSSYMVWSWFIYVLSANLLLVIPLLWVAAWWSLRPIEALAKEVRELEEHNRELLNPATTRELTSLVRNLNRLLKSERERYDKYRTTLTDLTHSLKTPLXXLQXXLRSLRSEKMSVSDAEPVMLEQISRISQQIGYYLHRASMRGGTLLSRELHPVAPLLDNLTSALNKVYQRKGVNISLDISPEISFVGEQNDFVEVMGNVLDNACKYCLEFVEISARQTDEHLYIVVEDDGPGIPLSKREVIFDRGQRVDTLRPGQGVGLAVAREITEQYEGKIVAGESMLGGARMEVIFGRQHSAPKDE

Some of the results follow.

This assay covers variants of B1. Description: enrichment ratio after two sorts for PhoP signalling (ratio (wild type AVST 3.29)); higher = more functional. The conditions noted are these: with PhoP (E. coli).
Regarding HTQY, the enrichment ratio is at most 0.25.

With WFLI, the enrichment ratio was at most 0.25.

On to PCRA, for which the enrichment ratio is at most 0.25.

In the case of NDQN, the enrichment ratio was at most 0.25.

On to PRCR, for which the enrichment ratio is at most 0.25.

As to SEVQ, the enrichment ratio came to 11.9.

YHRG: the enrichment ratio was at most 0.25.

As to SMWP, the enrichment ratio was at most 0.25.

Take RNPF: the enrichment ratio is at most 0.25.

Turning to FLCA, the enrichment ratio is at most 0.25.

For INHW, the enrichment ratio is at most 0.25.

Turning to FMRP, the enrichment ratio is at most 0.25.

Regarding GINV, the enrichment ratio is at most 0.25.

For TVFY, the enrichment ratio was at most 0.25.

Regarding ICDD, the enrichment ratio is at most 0.25.

In the case of TIFS, the enrichment ratio is at most 0.25.

In the case of WLQG, the enrichment ratio was at most 0.25.

Regarding KFYM, the enrichment ratio is at most 0.25.

For the variant SSMA, the enrichment ratio stood at 10.1.

On to GCIN, for which the enrichment ratio was found to be 1.39.

YRLQ: the enrichment ratio is at most 0.25.

As for KHQH, the enrichment ratio is at most 0.25.

Turning to FHCH, the enrichment ratio is at most 0.25.

For the variant QYHH, the enrichment ratio is at most 0.25.

For LEGN, the enrichment ratio was at most 0.25.

For EEAM, the enrichment ratio was at most 0.25.

Turning to NIGI, the enrichment ratio is at most 0.25.

Turning to YSEE, the enrichment ratio was determined as 1.02.

Consider PYRN, for which the enrichment ratio was at most 0.25.

For RGFE, the enrichment ratio is at most 0.25.

For RASN, the enrichment ratio was at most 0.25.

KPSI: the enrichment ratio is at most 0.25.

As to VWIL, the enrichment ratio was at most 0.25.

In the case of TQSF, the enrichment ratio was 7.45.

Consider IDRG, for which the enrichment ratio is at most 0.25.

In the case of TYIQ, the enrichment ratio is at most 0.25.

Turning to RDWN, the enrichment ratio was at most 0.25.

Take KGNF: the enrichment ratio was at most 0.25.

Regarding DNVK, the enrichment ratio was at most 0.25.

Consider GSVM, for which the enrichment ratio amounted to 4.79.

For WSFE, the enrichment ratio is at most 0.25.

With YSQN, the enrichment ratio is at most 0.25.

On to VFEH, for which the enrichment ratio was at most 0.25.

Take TSVP: the enrichment ratio was at most 0.25.

For PSYK, the enrichment ratio is at most 0.25.

Regarding LHKQ, the enrichment ratio is at most 0.25.

Consider PFQH, for which the enrichment ratio was at most 0.25.

For the variant HALD, the enrichment ratio was at most 0.25.

Regarding QPFM, the enrichment ratio was at most 0.25.

As to YPMG, the enrichment ratio is at most 0.25.

As for MFYS, the enrichment ratio is at most 0.25.

For INLH, the enrichment ratio is at most 0.25.

Turning to GHIE, the enrichment ratio was at most 0.25.

Consider FWML, for which the enrichment ratio is at most 0.25.

On to RANQ, for which the enrichment ratio was at most 0.25.

Take WDKR: the enrichment ratio was at most 0.25.

As to QQHW, the enrichment ratio was at most 0.25.

With KWLV, the enrichment ratio was at most 0.25.

Regarding YQLM, the enrichment ratio was 17.7.

Consider RKFF, for which the enrichment ratio was at most 0.25.

As for RYIP, the enrichment ratio is at most 0.25.

As to MLIQ, the enrichment ratio was at most 0.25.

Regarding DHYW, the enrichment ratio was at most 0.25.

Consider GEES, for which the enrichment ratio was at most 0.25.

For the variant DTTQ, the enrichment ratio is at most 0.25.

With KKMY, the enrichment ratio is at most 0.25.

Regarding FDVC, the enrichment ratio is at most 0.25.

ICVW: the enrichment ratio was at most 0.25.

For DPSE, the enrichment ratio was at most 0.25.

With WSGA, the enrichment ratio is at most 0.25.

For the variant YRRH, the enrichment ratio is at most 0.25.

In the case of GYRF, the enrichment ratio was at most 0.25.

As for KYAA, the enrichment ratio is at most 0.25.

Consider QMVR, for which the enrichment ratio is at most 0.25.

RARR: the enrichment ratio was at most 0.25.

For LPAS, the enrichment ratio is at most 0.25.

Turning to LLMP, the enrichment ratio was at most 0.25.

For AYTS, the enrichment ratio was at most 0.25.

On to RNNI, for which the enrichment ratio was at most 0.25.

Consider GLPC, for which the enrichment ratio was at most 0.25.

As for LHPS, the enrichment ratio was at most 0.25.

As to FYFD, the enrichment ratio is at most 0.25.

Regarding FKDQ, the enrichment ratio is at most 0.25.

Take VDKA: the enrichment ratio was at most 0.25.

As for HKHY, the enrichment ratio was at most 0.25.

KAWV: the enrichment ratio is at most 0.25.

For KDMP, the enrichment ratio is at most 0.25.

For the variant LLTF, the enrichment ratio is at most 0.25.

On to AENM, for which the enrichment ratio was at most 0.25.

For the variant IHWF, the enrichment ratio was at most 0.25.

For the variant EMTY, the enrichment ratio is at most 0.25.

KDVH: the enrichment ratio was at most 0.25.

Regarding EQFS, the enrichment ratio is at most 0.25.

On to MPQQ, for which the enrichment ratio was at most 0.25.

For the variant PANM, the enrichment ratio is at most 0.25.

On to FISP, for which the enrichment ratio is at most 0.25.

Take KYFM: the enrichment ratio is at most 0.25.

Take LFCW: the enrichment ratio is at most 0.25.

Consider EAHI, for which the enrichment ratio is at most 0.25.

As for GRGP, the enrichment ratio is at most 0.25.

For VWII, the enrichment ratio was at most 0.25.

KIMG: the enrichment ratio was at most 0.25.

On to KRRI, for which the enrichment ratio is at most 0.25.

Take TQHT: the enrichment ratio amounted to 6.87.

Consider FVKF, for which the enrichment ratio was at most 0.25.

On to RPFD, for which the enrichment ratio was at most 0.25.

Turning to HLCQ, the enrichment ratio is at most 0.25.

Take QTQS: the enrichment ratio was at most 0.25.

On to HKNS, for which the enrichment ratio is at most 0.25.

For the variant FCKR, the enrichment ratio was at most 0.25.

Turning to FCTG, the enrichment ratio was at most 0.25.

For PYGP, the enrichment ratio was at most 0.25.

Consider TPFR, for which the enrichment ratio was at most 0.25.

In the case of SKSG, the enrichment ratio was 1.03.

In the case of IKAM, the enrichment ratio was at most 0.25.

In the case of WTEL, the enrichment ratio is at most 0.25.

In the case of HQMG, the enrichment ratio was at most 0.25.

Consider EDVV, for which the enrichment ratio is at most 0.25.

As to TGLK, the enrichment ratio stood at 8.32.

With IPRL, the enrichment ratio is at most 0.25.

As to RKFG, the enrichment ratio is at most 0.25.

Turning to DAYL, the enrichment ratio was at most 0.25.

For the variant IHKN, the enrichment ratio was at most 0.25.

As to WSGE, the enrichment ratio was at most 0.25.

Consider GLSW, for which the enrichment ratio is at most 0.25.

Consider MIWR, for which the enrichment ratio is 0.653.

With SDLM, the enrichment ratio was 7.82.

With EVWS, the enrichment ratio is at most 0.25.

Consider SDVW, for which the enrichment ratio is at most 0.25.

QRGI: the enrichment ratio was at most 0.25.

As for NMTM, the enrichment ratio was at most 0.25.

For VLWK, the enrichment ratio is at most 0.25.

As to IKQG, the enrichment ratio was at most 0.25.

Consider RKGK, for which the enrichment ratio is at most 0.25.

DNDY: the enrichment ratio is at most 0.25.

Turning to FQWF, the enrichment ratio was at most 0.25.

For the variant FKLP, the enrichment ratio is at most 0.25.

On to PLSY, for which the enrichment ratio is at most 0.25.

With FTFP, the enrichment ratio was at most 0.25.

Regarding VWSG, the enrichment ratio was at most 0.25.

As to PTPK, the enrichment ratio is at most 0.25.

As for MSLE, the enrichment ratio worked out at 3.24.

For the variant YSEY, the enrichment ratio is at most 0.25.

With KLTM, the enrichment ratio was at most 0.25.

In the case of TCVV, the enrichment ratio is at most 0.25.

In the case of FCFH, the enrichment ratio is at most 0.25.

As for WSII, the enrichment ratio is at most 0.25.

As for TVNK, the enrichment ratio was at most 0.25.

With QHGH, the enrichment ratio was at most 0.25.

Consider NGNS, for which the enrichment ratio is at most 0.25.

On to ADWN, for which the enrichment ratio was at most 0.25.

Regarding EAMC, the enrichment ratio was at most 0.25.

In the case of PWQQ, the enrichment ratio was at most 0.25.

For the variant GVPN, the enrichment ratio is at most 0.25.

As to KPLK, the enrichment ratio was at most 0.25.

Take HYPW: the enrichment ratio was at most 0.25.

In the case of ITAM, the enrichment ratio stood at 0.308.

Take SDPH: the enrichment ratio is at most 0.25.

PKYQ: the enrichment ratio is at most 0.25.

For the variant FVYR, the enrichment ratio was at most 0.25.

Consider TPRF, for which the enrichment ratio was at most 0.25.

As for LFPN, the enrichment ratio is at most 0.25.

As for KYWH, the enrichment ratio was at most 0.25.

IWRN: the enrichment ratio was at most 0.25.

Consider HRQR, for which the enrichment ratio is at most 0.25.

On to DMNA, for which the enrichment ratio is at most 0.25.

With KHMK, the enrichment ratio is at most 0.25.

Take AHGF: the enrichment ratio is at most 0.25.

For SWKC, the enrichment ratio was at most 0.25.

Regarding TPHH, the enrichment ratio was at most 0.25.

For TIWI, the enrichment ratio is at most 0.25.

Take NNWM: the enrichment ratio is at most 0.25.

On to AGKS, for which the enrichment ratio was at most 0.25.

QIHS: the enrichment ratio came to 3.97.

Consider IYHH, for which the enrichment ratio is at most 0.25.

Turning to DFSV, the enrichment ratio was at most 0.25.

Take PLRS: the enrichment ratio is at most 0.25.

RQWY: the enrichment ratio is at most 0.25.

For the variant VKYG, the enrichment ratio was at most 0.25.

GQVT: the enrichment ratio was at most 0.25.

Regarding AYRS, the enrichment ratio is at most 0.25.

On to VWRK, for which the enrichment ratio was at most 0.25.

For the variant MLGV, the enrichment ratio is at most 0.25.

For the variant YGTE, the enrichment ratio was at most 0.25.

WTDI: the enrichment ratio is at most 0.25.

Turning to DFHR, the enrichment ratio was at most 0.25.

With KQLP, the enrichment ratio was at most 0.25.

Regarding IVHH, the enrichment ratio was at most 0.25.

For the variant SNLA, the enrichment ratio stood at 6.53.

Consider VKFG, for which the enrichment ratio is at most 0.25.

As to MAVP, the enrichment ratio was at most 0.25.

For the variant PPIT, the enrichment ratio is at most 0.25.

For YYAT, the enrichment ratio is at most 0.25.

As to QFIT, the enrichment ratio was at most 0.25.

With RFET, the enrichment ratio was at most 0.25.
